# ChEMBL document CHEMBL5606460, “ASAP - DENV-2 NS2B-NS3 protease fluorescence single point” (2024)
# Screen size: about 2,000 compounds; about 110 (5.5%) showed an effect of 50% or more. The list shows a part of the results.
# Target: Genome polyprotein (dengue virus type 2) (UniProt P29990)
# [1] = Thailand/16681/1984, Concentration 25.0 uM, Number of replicates 1.0
smiles,measurement,setting,value
c1ccc(-c2csc(C3CCN(Cc4c[nH]c5ccccc45)CC3)n2)cc1,inhibition,"Thailand/16681/1984, Concentration 49.5 uM, Number of replicates 2.0, Standard deviation 2.0846990733290722 %",-0.486%
same,inhibition,"Thailand/16681/1984, Concentration 99.01 uM, Number of replicates 2.0, Standard deviation 1.8692609474528468 %",0.057%
same,inhibition,"Thailand/16681/1984, Concentration 198.0 uM, Number of replicates 2.0, Standard deviation 2.60699247170438 %",-2.95%
O=C1NCc2ccccc2C12CCN(Cc1cc3ccc(F)cc3[nH]1)CC2,inhibition,"Thailand/16681/1984, Concentration 49.5 uM, Number of replicates 2.0, Standard deviation 1.2300831692419745 %",2.45%
same,inhibition,"Thailand/16681/1984, Concentration 99.01 uM, Number of replicates 2.0, Standard deviation 1.1766014315862576 %",4.6%
same,inhibition,"Thailand/16681/1984, Concentration 198.0 uM, Number of replicates 2.0, Standard deviation 0.78073985434599 %",4.35%
Cc1cc(C(=O)N2CCN(C(=O)c3cc(C(C)(F)F)n[nH]3)CC2)cc2nn[nH]c12,inhibition,"Thailand/16681/1984, Concentration 49.5 uM, Number of replicates 2.0, Standard deviation 0.5040908488530289 %",1.22%
same,inhibition,"Thailand/16681/1984, Concentration 99.01 uM, Number of replicates 2.0, Standard deviation 0.07028947937337628 %",1.9%
same,inhibition,"Thailand/16681/1984, Concentration 198.0 uM, Number of replicates 2.0, Standard deviation 0.7181064342983147 %",2.65%
CNC(=O)c1cc(Cl)ccc1NS(=O)(=O)c1ccc(C(=O)N(C)C)cc1,inhibition,"Thailand/16681/1984, Concentration 49.5 uM, Number of replicates 2.0, Standard deviation 0.43931539952348436 %",-0.006%
same,inhibition,"Thailand/16681/1984, Concentration 99.01 uM, Number of replicates 2.0, Standard deviation 1.0448066347124485 %",1.16%
same,inhibition,"Thailand/16681/1984, Concentration 198.0 uM, Number of replicates 2.0, Standard deviation 2.436767925477247 %",5.4%
O=Cc1ccc(N2CCC(C(=O)Nc3n[nH]c4ccc(Br)cc34)CC2)cc1,inhibition,[1],10.1%
Cc1cc(CO)c2cccc(CC(=O)NCc3c(C)noc3C)c2n1,inhibition,"Thailand/16681/1984, Concentration 49.95 uM, Number of replicates 2.0, Standard deviation 0.8979901952671747 %",-6.95%
same,inhibition,"Thailand/16681/1984, Concentration 99.9 uM, Number of replicates 2.0, Standard deviation 0.7380557178102791 %",-7.49%
c1ccn2c(CNCc3csc(C4CC4)c3)nnc2c1,inhibition,"Thailand/16681/1984, Concentration 49.5 uM, Number of replicates 2.0, Standard deviation 0.5098685495811448 %",-0.274%
same,inhibition,"Thailand/16681/1984, Concentration 99.01 uM, Number of replicates 2.0, Standard deviation 2.854108358582212 %",2.26%
same,inhibition,"Thailand/16681/1984, Concentration 198.0 uM, Number of replicates 2.0, Standard deviation 0.45642626137563413 %",0.937%
O=Cc1ccc(N2CCC(C(=O)Nc3cc(Cl)c(O)c(Cl)c3)CC2)cc1,inhibition,[1],100%
CC(C)(COC(=O)c1cncc(N2CCOCC2)c1)NC(=O)c1cc(N)cc(Cl)c1,inhibition,"Thailand/16681/1984, Concentration 49.5 uM, Number of replicates 2.0, Standard deviation 4.620111402718127 %",-0.804%
same,inhibition,"Thailand/16681/1984, Concentration 99.01 uM, Number of replicates 2.0, Standard deviation 4.5497544883871335 %",0.013%
same,inhibition,"Thailand/16681/1984, Concentration 198.0 uM, Number of replicates 2.0, Standard deviation 3.728922486542004 %",3.36%
Cc1cc(CO)c2cccc(NC(=O)C3CCN(C)CC3)c2n1,inhibition,"Thailand/16681/1984, Concentration 99.9 uM, Number of replicates 2.0, Standard deviation 2.5723142976307076 %",0.725%
CN1CCN(c2ccc(CCNc3ccccc3F)cc2)CC1,inhibition,"Thailand/16681/1984, Concentration 49.5 uM, Number of replicates 2.0, Standard deviation 1.1725472419342977 %",-4.52%
same,inhibition,"Thailand/16681/1984, Concentration 99.01 uM, Number of replicates 2.0, Standard deviation 1.0151129155310683 %",-3.89%
same,inhibition,"Thailand/16681/1984, Concentration 198.0 uM, Number of replicates 2.0, Standard deviation 0.9851713728804441 %",-1.99%
Cc1cc(CO)c2cccc(Cc3cccc(C(=O)NCCN4CCOCC4)c3)c2n1,inhibition,"Thailand/16681/1984, Concentration 49.95 uM, Number of replicates 2.0, Standard deviation 1.1800261159088588 %",-8.12%
same,inhibition,"Thailand/16681/1984, Concentration 99.9 uM, Number of replicates 2.0, Standard deviation 0.7869239771342965 %",-3.46%
Cc1cc(CO)c2cccc(Cc3ccccc3C(=O)Nc3cc(C)[nH]n3)c2n1,inhibition,"Thailand/16681/1984, Concentration 49.95 uM, Number of replicates 2.0, Standard deviation 0.6446306531775148 %",2.54%
same,inhibition,"Thailand/16681/1984, Concentration 99.9 uM, Number of replicates 2.0, Standard deviation 0.829324212498438 %",7.83%
CN1CCN(c2ccccc2NC(=O)C2CCN(c3ccc(C=O)cc3)CC2)CC1,inhibition,[1],12.3%
CC(C)(CO)NC(=O)c1cc(Cl)cc(NCc2cccc(-c3cn[nH]c3)c2)c1,inhibition,"Thailand/16681/1984, Concentration 49.5 uM, Number of replicates 2.0, Standard deviation 0.01630610992668277 %",-6.32%
CCn1ccnc(N2CC[C@@H](C(=O)NC)C2)c1=O,inhibition,"Thailand/16681/1984, Concentration 49.5 uM, Number of replicates 2.0, Standard deviation 0.10459397948815125 %",8.05%
same,inhibition,"Thailand/16681/1984, Concentration 99.01 uM, Number of replicates 2.0, Standard deviation 0.7657576612247314 %",14.6%
same,inhibition,"Thailand/16681/1984, Concentration 198.0 uM, Number of replicates 2.0, Standard deviation 0.34575656079354644 %",27.6%
CC(C)(C)OC(=O)NCc1cccc(NC(=O)[C@@H](N)c2ccc(OCc3ccccc3)cc2)c1,inhibition,"Thailand/16681/1984, Concentration 49.5 uM, Number of replicates 2.0, Standard deviation 2.6023428313766583 %",3.49%
same,inhibition,"Thailand/16681/1984, Concentration 99.01 uM, Number of replicates 2.0, Standard deviation 2.442998620533158 %",2.53%
same,inhibition,"Thailand/16681/1984, Concentration 198.0 uM, Number of replicates 2.0, Standard deviation 1.7754301140360438 %",1.59%
O=Cc1ccc(N2CCC(C(=O)NCCCOCCOCCO)CC2)cc1,inhibition,[1],13.6%
CCCCCC(=O)N[C@@H](CC(C)C)C(=O)NCc1cccc(CN)c1,inhibition,"Thailand/16681/1984, Concentration 49.5 uM, Number of replicates 2.0, Standard deviation 0.7403519834842739 %",-0.285%
same,inhibition,"Thailand/16681/1984, Concentration 99.01 uM, Number of replicates 2.0, Standard deviation 1.2870735055956777 %",-0.112%
same,inhibition,"Thailand/16681/1984, Concentration 198.0 uM, Number of replicates 2.0, Standard deviation 0.6378417125763649 %",-0.257%
O=C(NCCc1cncnc1)c1cn([C@H]2CCCNC2)nn1,inhibition,"Thailand/16681/1984, Concentration 49.5 uM, Number of replicates 2.0, Standard deviation 3.1505652659838077 %",-3.39%
same,inhibition,"Thailand/16681/1984, Concentration 99.01 uM, Number of replicates 2.0, Standard deviation 0.03260817375590849 %",-4.66%
same,inhibition,"Thailand/16681/1984, Concentration 198.0 uM, Number of replicates 2.0, Standard deviation 5.615654862136011 %",-0.277%
